According to PubChem BioAssay AID463173 (ICCB-Longwood Screening Facility, Harvard Medical School, 2010):
Out of some 52,000 compounds screened, about 1,700 (3.3%) were called active. Cut-off read from the data, not from the text of the source: active = survival mostly below about 52% (no sharp cut-off); inactive = mostly above about 56%. The list shows a part of the results.

The compounds below were run on Wild type (assay: growth inhibition of S. aureus wild type versus tarO mutant, primary screen, teichoic acid synthesis inhibitors, RN4220, OD600 (AID 463173)). Conditions: S. aureus RN4220 wild type/DeltatarO growth, OD600, 18 h, hits give low values, screened at 18.75 µg/mL (by protocol).
COc1ccc(NCc2nnc(SCC(N)=O)n2-c2ccc(C)cc2)cc1 was tested, and the survival was inactive: 106%. In the case of CCOC(=O)c1nc(Nc2ccccc2OC)c2ccccc2n1, the survival is reported as inactive: 70%. CCCCN(CC)C(=O)c1cc2c(=O)n3ccccc3nc2n1C was tested, and the survival was inactive: 81%. With CCCOc1ccc(-c2nc(N3CCCCC3)c3ccccc3n2)cc1 the survival was active: 0%. With Cc1nn(C)c2c1c(C(F)(F)F)cc(=O)n2CC(=O)N1CCCCC1C (stereo unspecified) the survival was inactive: 65%. With O=C(NCC(c1ccc2c(c1)OCO2)N1CCOCC1)C(=O)Nc1ccc(F)cc1F (stereo unspecified) the survival was inactive: 129%. For O=S(=O)(NCCc1ccccc1)c1cccs1, the survival was inactive: 92%. For COc1ccc(N(Cc2cccs2)C(=O)c2ccc(C(C)(C)C)cc2)cc1, the survival was inactive: 80%. With COc1cc2[nH]c(=O)n(Cc3ccc(C(=O)N4CCN(c5cc(Cl)ccc5C)CC4)cc3)c(=O)c2cc1OC the survival was inactive: 77%. For O=C(CN1C(=O)CC(c2ccco2)Sc2ccccc21)Nc1ccc(C(F)(F)F)cc1 (stereo unspecified), the survival was inactive: 96%. With C1Cc2nnc3c4c(nnc(c24)C1)CCC3 the survival was inactive: 93%. For COc1nc2nonc2nc1OC, the survival was inactive: 112%. With O=C(Cn1cnc2c(oc3ccccc32)c1=O)Nc1ccc(OC(F)(F)F)cc1 the survival was inactive: 89%. With COc1ccccc1CNC(=O)Cc1csc2nc(-c3ccccc3)cn12 the survival was inactive: 70%. CC1(CCC(=O)O)NNC(=S)NN1 was tested, and the survival was inactive: 101%. In the case of Cc1ccc(CNC(=O)c2ccc3c(c2)N(Cc2ccccc2)C(=O)c2ccccc2S3(=O)=O)cc1, the survival is reported as inactive: 103%. With Cc1cccc(CCNC(=O)c2cnc3c(C)cccn3c2=O)c1 the survival was inactive: 70%. In the case of CC(C)(C)c1ccc(S(=O)(=O)c2cn(CC(=O)Nc3ccccc3)c3ccccc3c2=O)cc1, the survival is reported as inactive: 75%. In the case of CCOC(=O)c1ccc(NC(=O)c2c(C)nn(-c3ccc(F)cc3)c2-n2cccc2)cc1, the survival is reported as inactive: 77%. In the case of Cc1ccc2c(c1)N(C(=O)C1CCN(S(=O)(=O)c3c(C)noc3/C=C/c3ccccc3F)CC1)CCO2, the survival is reported as inactive: 68%. In the case of CCn1c(SCc2ccc(F)cc2Cl)nnc1-c1nonc1NC(C)=O, the survival is reported as inactive: 104%. For COC(=O)C1CCN(CC(=O)Nc2cc(C)c3c(=O)oc4ccccc4c3n2)CC1, the survival was inactive: 82%. With COc1ccc(N(C(=O)c2cccc(C)c2)S(=O)(=O)c2ccc(C)cc2)cc1 the survival was inactive: 73%. With O=C(Nc1nnc(S(=O)(=O)N2CCCc3ccccc32)s1)c1cccc(F)c1 the survival was inactive: 13%. For O=C(CCC1N=C2c3ccccc3N=C(SCc3ccccc3F)N2C1=O)NCCc1ccccc1 (stereo unspecified), the survival was inactive: 82%. Cc1cc(C)c(NC(=O)Cn2ccn(-c3cccc(Cl)c3)c(=O)c2=O)c(C)c1 was tested, and the survival was inactive: 83%.
